26 molecules from patent US9873709B2 (priority 2013, dated 2018) can be followed below.

One may read the Ki as the dissociation constant of the complex between target and ligand, obtained from inhibition or displacement.

The target in this assay is isolated recombinant JAK1 kinase domain (Homo sapiens (Human), UniProt P23458). The settings on record: read-out: JAK1 Ki; isolated recombinant JAK1 kinase domain, 25 μM ATP.
For `CCOC(=O)N1CC=C(c2cccn3nc(Nc4ccc(C(=O)N5CCC(Cc6ccncc6)C5)cc4)nc23)CC1` (centres unmarked) [Example 2-424, ethyl 4-[2-[4-[3-(4-pyridylmethyl)pyrrolidine-1-carbonyl]anilino]-[1,2,4]triazolo[1,5-a]pyridin-8-yl]-3,6-dihydro-2H-pyridine-1-carboxylate], the Ki turned out to be 2.25 nM.
To `CCOC(=O)N1CC=C(c2cccn3nc(Nc4ccc(C(=O)NCC5CCNCC5)cc4)nc23)CC1` [Example 2-425, ethyl 4-[2-[4-(4-piperidylmethylcarbamoyl)anilino]-[1,2,4]triazolo[1,5-a]pyridin-8-yl]-3,6-dihydro-2H-pyridine-1-carboxylate] belongs 0.85 nM; to `CCOC(=O)N1CC=C(c2cccn3nc(Nc4ccc(C(=O)N5CCC(Cc6cccnc6)C5)cc4)nc23)CC1` (centres unmarked) [Example 2-426, ethyl 4-[2-[4-[3-(3-pyridylmethyl)pyrrolidine-1-carbonyl]anilino]-[1,2,4]triazolo[1,5-a]pyridin-8-yl]-3,6-dihydro-2H-pyridine-1-carboxylate], 1.89 nM.
To `CCOC(=O)N1CC=C(c2cccn3nc(Nc4ccc(C(=O)NCCC5CCCCN5)cc4)nc23)CC1` (centres unmarked) [Example 2-428, ethyl 4-[2-[4-[2-(2-piperidyl)ethylcarbamoyl]anilino]-[1,2,4]triazolo[1,5-a]pyridin-8-yl]-3,6-dihydro-2H-pyridine-1-carboxylate] belongs 1.68 nM; to `CCOC(=O)N1CC=C(c2cccn3nc(Nc4ccc(C(=O)N5CCCN(c6ccncc6)CC5)cc4)nc23)CC1` [Example 2-429, ethyl 4-[2-[4-[4-(4-pyridyl)-1,4-diazepane-1-carbonyl]anilino]-[1,2,4]triazolo[1,5-a]pyridin-8-yl]-3,6-dihydro-2H-pyridine-1-carboxylate], 1.26 nM; to `CCOC(=O)N1CC=C(c2cccn3nc(Nc4ccc(C(=O)N5CCN6CCCCC6C5)cc4)nc23)CC1` (centres unmarked) [Example 2-430, ethyl 4-[2-[4-(1,3,4,6,7,8,9,9a-octahydropyrido[1,2-a]pyrazine-2-carbonyl)anilino]-[1,2,4]triazolo[1,5-a]pyridin-8-yl]-3,6-dihydro-2H-pyridine-1-carboxylate], 4.79 nM.
Consider `CCOC(=O)N1CC=C(c2cccn3nc(Nc4ccc(C(=O)N5CCN(C)C(C(=O)N(C)C)C5)cc4)nc23)CC1` (centres unmarked) [Example 2-431, ethyl 4-[2-[4-[3-(dimethylcarbamoyl)-4-methyl-piperazine-1-carbonyl]anilino]-[1,2,4]triazolo[1,5-a]pyridin-8-yl]-3,6-dihydro-2H-pyridine-1-carboxylate], for which the Ki was determined as 6.79 nM.
In the case of `CCOC(=O)N1CC=C(c2cccn3nc(Nc4ccc(C(=O)N5CC6(CN(C(C)=O)C6)C5)cc4)nc23)CC1` [Example 2-432, ethyl 4-[2-[4-(6-acetyl-2,6-diazaspiro[3.3]heptane-2-carbonyl)anilino]-[1,2,4]triazolo[1,5-a]pyridin-8-yl]-3,6-dihydro-2H-pyridine-1-carboxylate], the inhibitory constant (Ki) worked out at 1.64 nM.
The result for `CCOC(=O)N1CC=C(c2cccn3nc(Nc4ccc(C(=O)NC5CCN(C)C5)cc4)nc23)CC1` (centres unmarked) [Example 2-433, ethyl 4-[2-[4-[(1-methylpyrrolidin-3-yl)carbamoyl]anilino]-[1,2,4]triazolo[1,5-a]pyridin-8-yl]-3,6-dihydro-2H-pyridine-1-carboxylate] reads 1.21 nM.
The result for `CCOC(=O)N1CC=C(c2cccn3nc(Nc4ccc(C(=O)N[C@H]5[C@@H]6CNC[C@@H]65)cc4)nc23)CC1` [Example 2-434, ethyl 4-[2-[4-[[(1S,5R)-3-azabicyclo[3.10]hexan-6-yl]carbamoyl]anilino]-[1,2,4]triazolo[1,5-a]pyridin-8-yl]-3,6-dihydro-2H-pyridine-1-carboxylate] reads 1.55 nM.
Consider `CCOC(=O)N1CC=C(c2cccn3nc(Nc4ccc(C(=O)N5C[C@H]6CNC[C@H]6C5)cc4)nc23)CC1` [Example 2-435, ethyl 4-[2-[4-[(3aR,6aS)-2,3,3a,4,6,6a-hexahydro-1H-pyrrolo[3,4-c]pyrrole-5-carbonyl]anilino]-[1,2,4]triazolo[1,5-a]pyridin-8-yl]-3,6-dihydro-2H-pyridine-1-carboxylate], for which the inhibition constant Ki came out at 2.33 nM.
The result for `CCOC(=O)N1CC=C(c2cccn3nc(Nc4ccc(C(=O)N5CCCC56CCCNC6)cc4)nc23)CC1` (centres unmarked) [Example 2-436, ethyl 4-[2-[4-(1,9-diazaspiro[4.5]decane-1-carbonyl)anilino]-[1,2,4]triazolo[1,5-a]pyridin-8-yl]-3,6-dihydro-2H-pyridine-1-carboxylate] reads 2.99 nM.
To `CCOC(=O)N1CC=C(c2cccn3nc(Nc4ccc(C(=O)N5CC6(CCCCN6)C5)cc4)nc23)CC1` [Example 2-437, ethyl 4-[2-[4-(2,5-diazaspiro[3.5]nonane-2-carbonyl)anilino]-[1,2,4]triazolo[1,5-a]pyridin-8-yl]-3,6-dihydro-2H-pyridine-1-carboxylate] belongs 1.79 nM.
The result for `CCOC(=O)N1CC=C(c2cccn3nc(Nc4ccc(C(=O)N(C)C5CCCNC5)cc4)nc23)CC1` (centres unmarked) [Example 2-438, ethyl 4-[2-[4-[methyl(3-piperidyl)carbamoyl]anilino]-[1,2,4]triazolo[1,5-a]pyridin-8-yl]-3,6-dihydro-2H-pyridine-1-carboxylate] reads 4.03 nM; that for `CCOC(=O)N1CC=C(c2cccn3nc(Nc4ccc(C(=O)N5CCCC6(CCNC6)C5)cc4)nc23)CC1` (centres unmarked) [Example 2-439, ethyl 4-[2-[4-(2,7-diazaspiro[4.5]decane-7-carbonyl)anilino]-[1,2,4]triazolo[1,5-a]pyridin-8-yl]-3,6-dihydro-2H-pyridine-1-carboxylate], 2.89 nM; that for `O=C(CCC(F)(F)F)N1CC=C(c2cccn3nc(Nc4ccc(C(=O)N5CCCC56CCNC6)cc4)nc23)CC1` (centres unmarked) [Example 2-440, 1-[4-[2-[4-(1,7-diazaspiro[4.4]nonane-1-carbonyl)anilino]-[1,2,4]triazolo[1,5-a]pyridin-8-yl]-3,6-dihydro-2H-pyridin-1-yl]-4,4,4-trifluoro-butan-1-one], 0.47 nM.
Take `CN(CCN)C(=O)c1ccc(Nc2nc3c(C4=CCN(C(=O)CCC(F)(F)F)CC4)cccn3n2)cc1` [Example 2-441, N-(2-aminoethyl)-N-methyl-4-[[8-[1-(4,4,4-trifluorobutanoyl)-3,6-dihydro-2H-pyridin-4-yl]-[1,2,4]triazolo[1,5-a]pyridin-2-yl]amino]benzamide]: the Ki is 0.53 nM.
To `O=C(CCC(F)(F)F)N1CC=C(c2cccn3nc(Nc4ccc(C(=O)N5CCCC6(CCCNC6)C5)cc4)nc23)CC1` (centres unmarked) [Example 2-443, 1-[4-[2-[4-(2,8-diazaspiro[5.5]undecane-2-carbonyl)anilino]-[1,2,4]triazolo[1,5-a]pyridin-8-yl]-3,6-dihydro-2H-pyridin-1-yl]-4,4,4-trifluoro-butan-1-one] belongs 1.2 nM; to `O=C(NC1CCNCC1)c1ccc(Nc2nc3c(C4=CCN(C(=O)CCC(F)(F)F)CC4)cccn3n2)cc1` [Example 2-445, N-(4-piperidyl)-4-[[8-[1-(4,4,4-trifluorobutanoyl)-3,6-dihydro-2H-pyridin-4-yl]-[1,2,4]triazolo[1,5-a]pyridin-2-yl]amino]benzamide], 1.27 nM.
To `NCC1CCN(C(=O)c2ccc(Nc3nc4c(C5=CCN(C(=O)CCC(F)(F)F)CC5)cccn4n3)cc2)CC1` [Example 2-446, 1-[4-[2-[4-[4-(aminomethyl)piperidine-1-carbonyl]anilino]-[1,2,4]triazolo[1,5-a]pyridin-8-yl]-3,6-dihydro-2H-pyridin-1-yl]-4,4,4-trifluoro-butan-1-one] belongs 0.4 nM; to `NCC1CCN(C(=O)c2ccc(Nc3nc4c(C5=CCN(C(=O)CCC(F)(F)F)CC5)cccn4n3)cc2)C1` (centres unmarked) [Example 2-447, 1-[4-[2-[4-[3-(aminomethyl)pyrrolidine-1-carbonyl]anilino]-[1,2,4]triazolo[1,5-a]pyridin-8-yl]-3,6-dihydro-2H-pyridin-1-yl]-4,4,4-trifluoro-butan-1-one], 0.9 nM.
The result for `O=C(CCC(F)(F)F)N1CC=C(c2cccn3nc(Nc4ccc(C(=O)N5CCO[C@@H]6CNC[C@H]65)cc4)nc23)CC1` [Example 2-448, 1-[4-[2-[4-[(4aR,7aR)-3,4a,5,6,7,7a-hexahydro-2H-pyrrolo[3,4-b][1,4]oxazine-4-carbonyl]anilino]-[1,2,4]triazolo[1,5-a]pyridin-8-yl]-3,6-dihydro-2H-pyridin-1-yl]-4,4,4-trifluoro-butan-1-one] reads 1.03 nM; that for `O=C(CCC(F)(F)F)N1CC=C(c2cccn3nc(Nc4ccc(C(=O)N5C[C@H]6CN[C@H]6C5)cc4)nc23)CC1` [Example 2-449, 1-[4-[2-[4-[(1R,5R)-3,6-diazabicyclo[3.2.0]heptane-3-carbonyl]anilino]-[1,2,4]triazolo[1,5-a]pyridin-8-yl]-3,6-dihydro-2H-pyridin-1-yl]-4,4,4-trifluoro-butan-1-one], 1.17 nM.
For the molecule `O=C(CCC(F)(F)F)N1CC=C(c2cccn3nc(Nc4ccc(C(=O)N5CCCCC56CCNCC6)cc4)nc23)CC1` [Example 2-450, 1-[4-[2-[4-(1,9-diazaspiro[5.5]undecane-1-carbonyl)anilino]-[1,2,4]triazolo[1,5-a]pyridin-8-yl]-3,6-dihydro-2H-pyridin-1-yl]-4,4,4-trifluoro-butan-1-one], the Ki amounted to 1.77 nM.
To `CN(C(=O)c1ccc(Nc2nc3c(C4=CCN(C(=O)CCC(F)(F)F)CC4)cccn3n2)cc1)C1CNC1` [Example 2-451] belongs 1.46 nM; to `NCC12CC(CN1C(=O)c1ccc(Nc3nc4c(C5=CCN(C(=O)CCC(F)(F)F)CC5)cccn4n3)cc1)C2` [Example 2-452, 1-[4-[2-[4-[4-(aminomethyl)-3-azabicyclo[2.1.1]hexane-3-carbonyl]anilino]-[1,2,4]triazolo[1,5-a]pyridin-8-yl]-3,6-dihydro-2H-pyridin-1-yl]-4,4,4-trifluoro-butan-1-one], 0.97 nM.
